# Reference: patent US20190209704A1 (IGENICA BIOTHERAPEUTICS, published 2019)
# Read-outs that look alike come from different tables or passages of the source.
# T1: CD98 on cells (SKOV3, H446, RAMOS, MOLM13) (UniProt P08195 2-529, limits assumed)
# T1 sequence (looked up): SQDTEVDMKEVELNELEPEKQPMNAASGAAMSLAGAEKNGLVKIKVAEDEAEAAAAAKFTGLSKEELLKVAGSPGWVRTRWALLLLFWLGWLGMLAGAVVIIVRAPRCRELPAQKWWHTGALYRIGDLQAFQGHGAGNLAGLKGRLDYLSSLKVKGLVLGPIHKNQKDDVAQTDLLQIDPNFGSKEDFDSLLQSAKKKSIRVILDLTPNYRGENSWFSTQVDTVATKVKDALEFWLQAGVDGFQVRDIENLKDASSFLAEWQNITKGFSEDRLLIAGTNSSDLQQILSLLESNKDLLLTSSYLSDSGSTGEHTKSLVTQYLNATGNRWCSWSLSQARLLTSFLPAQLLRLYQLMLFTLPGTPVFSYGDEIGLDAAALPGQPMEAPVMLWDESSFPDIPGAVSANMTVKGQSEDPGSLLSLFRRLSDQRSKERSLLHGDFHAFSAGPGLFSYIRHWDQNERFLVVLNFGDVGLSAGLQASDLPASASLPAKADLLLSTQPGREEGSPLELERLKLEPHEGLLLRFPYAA
# T2: CD98 (purified antigen) (UniProt P08195 105-529, limits assumed)
# T2 construct: Only called 'its purified antigen, CD98'; construct not described
# T2 sequence (looked up): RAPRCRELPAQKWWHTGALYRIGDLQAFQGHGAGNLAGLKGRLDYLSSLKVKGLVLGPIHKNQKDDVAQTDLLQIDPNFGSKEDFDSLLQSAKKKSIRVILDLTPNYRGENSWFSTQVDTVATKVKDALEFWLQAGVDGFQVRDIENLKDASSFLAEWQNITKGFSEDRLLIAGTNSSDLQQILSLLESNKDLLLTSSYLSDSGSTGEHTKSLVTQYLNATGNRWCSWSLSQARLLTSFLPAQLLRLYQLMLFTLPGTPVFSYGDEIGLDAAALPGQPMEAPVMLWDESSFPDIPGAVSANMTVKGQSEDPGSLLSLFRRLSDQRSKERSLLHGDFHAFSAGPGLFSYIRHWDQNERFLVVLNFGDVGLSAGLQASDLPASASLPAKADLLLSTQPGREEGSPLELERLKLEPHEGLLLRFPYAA
# T3: CD98 on tumour cells (UniProt P08195 2-529, limits assumed)
# T3 sequence (looked up): T1 sequence (looked up)
# B1: IGN523-DBM(C6)-MMAF (antibody, human IgG1, kappa)
# heavy: QVQLVQSGAEVKKPGSSVKVSCKASGNAFTNYLIEWVRQAPGQGLEWMGVINPGSGITNYNEKFKGKATITADKSTSTAYMELSSLRSEDTAVYYCSGSANWFAYWGQGTLVTVSSASTKGPSVFPLAPSSKSTSGGTAALGCLVKDYFPEPVTVSWNSGALTSGVHTFPAVLQSSGLYSLSSVVTVPSSSLGTQTYICNVNHKPSNTKVDKRV[gap - human IgG1 Fc]
# light: DIVMTQSPDSLAVSLGERATINCKSSQSLLYSSNQKNYLAWYQQKPGQPPKLLIYWASTRDSGVPDRFTGSGSGTDFTLTISSLQAEDVAVYYCQRYYGYPWTFGGGTKVEIKRTVAAPSVFIFPPSDEQLKSGTASVVCLLNNFYPREAKVQWKVDNALQSGNSQESVTEQDSKDSTYSLSSTLTLSKADYEKHKVYACEVTHQGLSSPVTKSFNRGEC
# modifications: DBM(C6)-MMAF bridging the two cysteines of each opened interchain disulfide; DAR 4
# notes: Antibody-drug conjugate of IGN523 (IgG1); also called DBM(C6)-MMAF-conjugated IGN523
# B2: IGN523-DBM(C6)-MMAF (antibody)
# heavy: B1 heavy
# light: B1 light
# modifications: DBM(C6)-MMAF bridging the heavy-light interchain disulfide cysteines; DBM(C6)-MMAF bridging the two cysteines of each opened interchain disulfide; DAR 4
# notes: as for B1
# B3: IGN523(C226AC229A)-CPM(C6)-Val-Ala-PBD (antibody, human IgG1, kappa)
# heavy: QVQLVQSGAEVKKPGSSVKVSCKASGNAFTNYLIEWVRQAPGQGLEWMGVINPGSGITNYNEKFKGKATITADKSTSTAYMELSSLRSEDTAVYYCSGSANWFAYWGQGTLVTVSSASTKGPSVFPLAPSSKSTSGGTAALGCLVKDYFPEPVTVSWNSGALTSGVHTFPAVLQSSGLYSLSSVVTVPSSSLGTQTYICNVNHKPSNTKVDKRV[gap - human IgG1 Fc with C226A C229A (EU numbers)]
# light: B1 light
# modifications: CPM(C6)-Val-Ala-PBD bridging the heavy chain-light chain interchain disulfide cysteines; DAR 2
# B4: IGN523-CPM(C6)-MMAF (antibody, human IgG1, kappa)
# heavy: B1 heavy
# light: B1 light
# modifications: CPM(C6)-MMAF bridging the two cysteines of each opened interchain disulfide; DAR 4
# B5: IGN523 (antibody, human IgG1, kappa)
# heavy: B1 heavy
# light: B1 light
# notes: Unconjugated human IgG1; also called anti-CD98 antibody
# Tests used:
# [1] = biological target: T1, CD98 on cells (SKOV3, H446, RAMOS, …); assay: cell-based or functional assay
# CD98 (purified antigen) [2] = biological target: T2, CD98 (purified antigen); assay: SPR (BioRad ProteOn XPR 36), ADC captured on goat anti-human Fc surface, 25 C, 1:1 model
# CD98 on tumour cells = biological target: T3, CD98 on tumour cells; assay: cell-based or functional assay
# [3] = biological target: T1, CD98 on cells (SKOV3, H446, RAMOS, …); assay: cell-based or functional assay; remark: listed apart in the source
# [4] = biological target: T1, CD98 on cells (SKOV3, H446, RAMOS, …); assay: cell-based or functional assay; remark: listed apart in the source
# CD98 (purified antigen) [5] = biological target: T2, CD98 (purified antigen); assay: SPR (BioRad ProteOn XPR 36), antibody captured on goat anti-human Fc surface, 25 C, 1:1 model
binder,measurement,setting,value
B1,"ADC Assays-IC50 Data (nM), H446 cells (Cell-Titer Glo, 3 days)",[1],0.05 nM
same,"ADC Assays-IC50 Data (nM), SKOV3 cells (Cell-Titer Glo, 3 days)",[1],0.1 nM
same,Kd,CD98 (purified antigen) [2],180 pM
B2,"IC50, SKOV-3 cell viability (Cell-Titer Glo, three days)",CD98 on tumour cells,112 pM
B3,"MOLM13 IC50 (nM), in vitro cytotoxicity",[3],4e-05 nM
B4,"ADC Assays - IC50 Data (nM), RAMOS cells (Cell-Titer Glo, 3 days)",[4],0.09 nM
same,"ADC Assays-IC50 Data (nM), H446 cells (Cell-Titer Glo, 3 days)",[4],0.01 nM
same,"ADC Assays-IC50 Data (nM), SKOV3 cells (Cell-Titer Glo, 3 days)",[4],0.09 nM
B5,Kd,CD98 (purified antigen) [5],140 pM
